# Data as given in the supplement of paper PMC3334620.
# The full ranking holds about 33,000 sequences; the median of “E-score (-0.5 to 0.5)” is about -0.032, and the highest 2% start at about 0.36. Some of the results follow.
# Target: T1, Sko1 (UniProt Q02100)
# T1 sequence: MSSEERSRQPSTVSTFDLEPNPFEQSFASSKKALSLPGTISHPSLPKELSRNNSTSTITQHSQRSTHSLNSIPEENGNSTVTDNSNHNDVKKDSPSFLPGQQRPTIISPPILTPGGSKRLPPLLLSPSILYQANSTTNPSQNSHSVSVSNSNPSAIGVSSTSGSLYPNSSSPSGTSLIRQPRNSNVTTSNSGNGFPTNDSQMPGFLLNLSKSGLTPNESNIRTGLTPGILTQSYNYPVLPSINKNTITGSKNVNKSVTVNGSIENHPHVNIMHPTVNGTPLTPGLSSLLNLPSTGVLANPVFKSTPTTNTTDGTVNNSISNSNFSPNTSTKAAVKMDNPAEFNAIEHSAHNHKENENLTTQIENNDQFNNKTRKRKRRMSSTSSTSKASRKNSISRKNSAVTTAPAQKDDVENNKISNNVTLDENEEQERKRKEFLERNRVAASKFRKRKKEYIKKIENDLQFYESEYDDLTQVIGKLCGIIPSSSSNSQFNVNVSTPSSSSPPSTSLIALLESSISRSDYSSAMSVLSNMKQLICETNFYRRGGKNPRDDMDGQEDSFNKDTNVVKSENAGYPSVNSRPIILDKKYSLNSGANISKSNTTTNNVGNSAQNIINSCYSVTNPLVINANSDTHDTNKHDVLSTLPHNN
# Assay: PBM E-score (8-mer binding enrichment) (E-score (-0.5 to 0.5)); higher = stronger / more preferred TF binding; most listed sequences are background and not binding sites
# Conditions: protein concentration: 200 nM; construct: GST-full length
# Outline: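 GST-tagged yeast TFs (full-length or DNA-binding domain) were made by PURExpress in vitro transcription/translation and applied at about 100-200 nM to universal all-10-mer Agilent arrays. The arrays were made double-stranded by primer extension, on fresh or once-stripped slides. Bound protein was detected with fluorescent anti-GST, and scans were normalised with masliner. Each ungapped eight-base word, pooled with its reverse complement, received an E-score (modified Wilcoxon-Mann-Whitney statistic) from the Universal PBM Analysis Suite.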
row,Sequence,PBM E-score
1,AATGACCT,0.267
2,ATTGGAAC,0.161
3,CTCTGTTA,-0.0551
4,GTGTGGAA,0.199
5,CCATGGAA,0.0172
6,TAGTATCA,0.187
7,AGGTGATG,0.087
8,GAAAGGAA,-0.0626
9,CTACATCA,0.375
10,GCACTGTA,0.0278
11,CTGACCAG,-0.281
12,AGCGAGAG,0.00439
13,ATAGACGG,-0.098
14,AGTAGAGG,-0.232
15,TAACTGTA,0.0544
16,AGTTACGC,0.317
17,GCCACGAC,0.00461
18,TACAAATA,0.222
19,AAAGACAT,0.15
20,AGCCCGCT,-0.379
21,CGACCATA,-0.0861
22,ATACGTCG,0.422
23,GGTATTAA,0.00055
24,AGACTGAG,-0.225
25,CGGACCAC,-0.156

row,Sequence,PBM E-score
1,CATTTGTA,0.241
2,AAAGTTAC,0.259
3,AGGGGCAT,-0.165
4,CGAACTAA,0.143
5,CGCCTGCA,-0.145
6,ACGGACTG,-0.149
7,AAAAACCA,0.0638
8,GACGACGA,0.0774
9,GGAAATCC,-0.197
10,CATGTGAG,-0.132
11,GCGATAAC,0.108
12,CCGTATGC,-0.0726
13,AACCTAAG,-0.0794
14,GCGCGACC,-0.101
15,GTCCATGA,0.00179
16,CAGAAGGA,-0.308
17,AACAGATG,-0.0683
18,AGCCCTCG,-0.187
19,CAGTTAAA,0.0533
20,TTCTTAAA,0.0524
21,AAACAAAA,0.173
22,TACCTAGA,-0.116
23,CCCGCAAA,-0.0244
24,AACTAGGG,-0.0575
25,ACAAAAAA,0.221

row,Sequence,PBM E-score
1,CTCGCCTA,-0.276
2,CACTGTCA,0.0185
3,CAGGAAAA,0.0768
4,CGCGAGAA,-0.118
5,AGCCTCAT,-0.194
6,ATCTCATC,0.0651
7,AAGGACTT,-0.275
8,CATGGTTA,0.143
9,CGAACCCA,-0.131
10,AAACTCTC,-0.0431
11,CTGTACGA,0.0985
12,AGTGTGAG,-0.0189
13,CGCCACCG,-0.141
14,CAAATCCA,-0.00817
15,ATTGGCGA,-0.0227
16,GTTTAGGA,-0.00127
17,AAGGGTCT,-0.179
18,ACCAGTAG,-0.246
19,CTTGGATA,-0.0507
20,AATCACCT,0.125
21,AGAGCGGA,-0.0828
22,AGCAGAGC,-0.184
23,AGGACGTC,0.363
24,CCTCTAAA,-0.149
25,AGCATCTC,-0.176

row,Sequence,PBM E-score
1,ACAATGCC,-0.113
2,GCCTTGCA,-0.133
3,ATAAAGGG,-0.176
4,GCACAAAA,0.0976
5,CTCGCAAA,-0.0485
6,GTCCCTAA,-0.221
7,GACTGTAC,-0.031
8,CACCATCG,-0.14
9,ACCCTCTC,-0.327
10,CCTGGGAA,-0.193
11,CCGATTCG,0.0836
12,ACGGTCAA,0.0587
13,ATAACCCG,-0.201
14,AACGATAA,0.026
15,CATTACGA,0.398
16,CGTCATCC,0.475
17,AAAGGATC,-0.0203
18,CCTGATCA,-0.141
19,AACGTTAG,0.176
20,GGGTACTA,-0.00254
21,CACTCCTA,0.0413
22,TCCGCACA,-0.111
23,CGTGGCGA,0.0528
24,ATAAAAAA,0.178
25,CTAAATTC,0.203

row,Sequence,PBM E-score
1,CGGTTCAC,-0.233
2,AAGACGTA,0.454
3,AAGCGGAT,-0.256
4,GACTAAGA,-0.00186
5,ATGAGGTA,0.335
6,ATCAGTTA,0.159
7,ACGATGAT,0.246
8,AGGTGGAT,-0.228
9,CTTTTCTA,-0.186
10,CTTCTAAA,0.0729
11,TAGACTGA,-0.0827
12,CGATCCAG,-0.0419
13,GTTCGGCA,-0.0573
14,ACTCACCA,0.0298
15,ACGCTGAG,-0.173
16,AAAATACC,0.146
17,AAGACCCC,-0.274
18,TAATGGAA,0.153
19,CGAATCAC,0.0177
20,AAGGAACC,-0.127
21,AAAAGTAT,0.189
22,GTGTTCTA,0.0982
23,ACGGCGTA,0.212
24,ATTTGAGA,0.0882
25,AGCAAGCT,-0.228

row,Sequence,PBM E-score
1,AATCAACC,-0.0815
2,AGAAGTGC,-0.24
3,AACCTCGA,-0.0258
4,CTAAGAGC,-0.148
5,AAGCCGAC,-0.319
6,AGGCCCAC,-0.287
7,AACTTGGA,-0.0527
8,ACTTCCGA,-0.111
9,CCACCTCC,-0.322
10,CGTTCAGC,0.00494
11,GAATACGC,0.3
12,ACCGTCAA,0.00527
13,AACCGCGA,0.169
14,AGGGCGAC,-0.2
15,GGGATGAC,0.197
16,TCACCGCA,-0.00518
17,CCAGCTGG,-0.225
18,CGTCATAG,0.483
19,GAACATAA,0.119
20,TCGGGTAA,-0.114
21,CGGCCTGC,-0.204
22,GCCTAAAC,-0.138
23,ATGGCCGA,-0.0453
24,GGCGGCAA,-0.257
25,GCGGAGAC,0.0155

row,Sequence,PBM E-score
1,AGCGCGTG,0.0652
2,AGTAGTGC,-0.202
3,CGGAAGCC,-0.209
4,AGTGGCGA,-0.126
5,GCAACATA,0.106
6,GTGTCTGA,-0.0146
7,GTGTCCTA,-0.0305
8,GCGAAGAA,-0.00349
9,ATTCCACG,0.0997
10,TGACACCA,0.0833
11,TCGAATAA,0.0835
12,CGCCCAAG,-0.294
13,CTCGGTCC,-0.158
14,CCAGACAC,-0.175
15,CATCGCCC,-0.0666
16,CTAAACTA,-0.0161
17,CGGTTACA,0.0784
18,CATTACCC,-0.0584
19,CGTGATAG,0.181
20,TGATTAAA,0.191
21,ACCGAGAT,-0.203
22,ACAGGCTA,-0.205
